Among all 150,000 compounds or so, about 540 (0.36%) showed an effect of 50% or more. Some of the results follow.
The compounds below were run on Plasmodium falciparum (assay: Primary screen in NF54 nanoGlo assay, in single point, at 2uM, 72h; a lower Z score goes with more inhibition). Conditions: timepoint 72 hour.
Type: functional, Erythrocyte

SMILES	% Inhibition [%]	Z score
O=C(Nc1cccnc1)[C@@H]1CC=CCC1	-12	2.35
Cc1cn(C(C)(C)C(=O)N2CCO[C@H]3COCC[C@H]32)cn1	-7	1.11
COc1ccc(N2CCN(c3c4c(nc5nc(C)nn35)CCCC4)CC2)cc1	-4	0.71
CCCCN1CCN(c2cncc(C(=O)N(C)C)n2)CC1=O	-8	0.77
COc1cncc(S(=O)(=O)N2CCCCc3cc(Cl)ccc32)c1	3	-0.47
O=C(c1ccc(-c2ccccc2)s1)N1CC[C@H](CN2CCCCC2)C1	-9	1.23
Cc1cc(COC(=O)CCc2c[nH]c3ccccc23)no1	9	-1.39
CCC1=C(c2ccc(C)cc2)S(=O)(=O)N=C1NCC(=O)NCc1cc(OC)ccc1OC	-14	1.41
CC1CN(Cc2ccccn2)CCN1CC(O)c1ccccc1 (stereo not drawn)	-3	0.37
Cc1ccc(C2CCCCCN2CC(O)CN2CCOCC2)o1 (stereo not drawn)	-1	0.07
CC1CN(C(=O)C2CCCN(CC(F)(F)F)C2)c2cccnc2O1 (stereo not drawn)	-12	1.35
CC(=O)Nc1nc(C(=O)OCC(C)(C)c2ccccc2)cs1	-4	0.41
O=C(NC1CCS(=O)(=O)C1)[C@H](Cc1ccccc1)n1c(=O)[nH]c2ccccc2c1=O (stereo partly drawn)	-19	2.38
O=C(NCc1ccccc1)c1csc(CN(CCC(c2ccccc2)c2ccccc2)Cc2ccc(F)cc2)n1	2	-0.43
Cc1[nH]n(-c2ccccc2)c(=O)c1[C@]1(C(F)(F)F)NC(=O)N(Cc2ccccc2)C1=O	-4	0.48
O=C(Nc1cccnc1)c1cc(O)ncn1	1	-0.14
Cc1noc(-c2ccc(S(=O)(=O)NCc3ccco3)o2)c1C	-9	1.61
COCCN(CC(=O)Nc1nc(-c2ccccc2)cn1-c1ccc(C(F)(F)F)cc1)C(=O)c1cccs1	-14	2.08
CCc1csc(CNC(=O)[C@H]2CCc3nn(C)c(=O)n3C2)n1	-15	2.1
Cc1cc(CNC(=O)c2ccc3nc(-c4ccc(F)cc4)cn3c2)no1	-21	1.93
CC1C[S+]([O-])CCN1CCC(=O)Nc1cc(S(=O)(=O)N2CCCC2)ccc1Cl (stereo not drawn)	-1	0.17

SMILES	% Inhibition [%]	Z score
CN(CCn1occ(Br)c1=O)c1ccccc1	-16	1.43
Cc1nn(-c2ccccc2)c(C)c1C(=O)Nc1ccc2c(c1)OC(F)(F)O2	1	-0.19
CC(=O)N1CCC(N2C[C@H](O)C[C@H]2c2nc(-c3cccc(C)c3)no2)CC1	-9	1.54
CN1CCC(CNC(=O)C(C)(C)C)CC1	-11	1.68
COc1cccc(OCc2nc(C(=O)N3CCN(c4ccccn4)CC3)co2)c1	4	-0.72
CCc1ccc(CN(C)C(=O)C[C@]2(c3cccc(OC)c3)CC(=O)N(CCOC)C2=O)cc1	-12	1.71
COCCN1C[C@@H](Cc2cc(O)c(F)c(F)c2)CC1=O	0	0.02
O=C([C@@H]1CCCc2ccccc21)N(CC(F)(F)F)C1CCC1	-9	0.8
COCCS(=O)(=O)c1ccc(-c2nc([C@H]3CCO[C@@H]3C(C)(C)C)no2)cc1	-11	1.49
COC(C)(C(=O)N1CCC2(CNC(=O)C2)C1)C1CC1 (stereo not drawn)	-8	1.48
Cc1cc(C)n(-c2ccc(C(=O)N3CCCOCC3)cc2)n1	-15	2.83
CC[C@@H](CC#N)NC(=O)c1cc(CN2CCCC2)on1	0	-0.01
O=C(NCc1ccc(Cl)cc1Cl)[C@H]1CCCN(C(=O)c2ccoc2)C1	3	-0.53
Cc1occc1C(=O)NCc1cccnc1N1CCC[C@H](O)C1	-9	1.6
CCN(C(=O)c1cn(C(C)(C)C)nn1)c1ccc(C(F)(F)F)cc1	-13	1.41
Cc1cc(C)cc(NC(=O)c2nc3c(=O)n(Cc4ccc(Cl)cc4)c4cc(C)ccc4n3n2)c1	-3	0.53
OCC[C@H]1CCc2ccccc2N1Cc1ncnn1CC(F)F	-17	2.11
Cn1ccn2ncc(C(=O)N3CC[C@@H]4OCc5cnnn5[C@@H]4C3)c12	-18	3.1
CCCCN(CC(N)=O)C(=O)Cc1ccc(C)cc1	0	-0.06
O=C1N2CCCc3cccc(c32)C12OCCO2	-10	1.61
Cc1cc(-c2nc(-c3ccc4[nH]c(=O)[nH]c4c3)cs2)ccc1F	-2	0.34

SMILES	% Inhibition [%]	Z score
CS(=O)(=O)CC1(NC(=O)c2ccsc2C(F)F)COC1	-8	0.86
CC1CC(C)CN(C(=O)c2ccc3c(=O)n4c(nc3c2)CCCC4)C1 (stereo not drawn)	-3	0.52
CC[C@H]1COCCN1C(=O)[C@H](Cc1ccccc1)N(C)C	-13	1.79
Cc1nn(C)c(Cl)c1CN(C)C(=O)[C@H]1CCOC1	-6	1.13
CC(C)Cc1cc(C(=O)N2CC[S@@+]([O-])C(C)(C)C2)[nH]n1	-10	1.05
O=C([C@H]1CC(=O)N(C2CCOCC2)C1)N1CCN(c2ncccn2)CC1	-10	1.51
CC[C@H](C)Cc1nc(-c2cc(C(F)F)nn2C)n(CCO)n1	11	-1.48
O=c1ccc2[nH]ccc2n1C[C@H]1COCCO1	2	-0.33
CCOC(=O)[C@@H]1CCCCN1CCN1C(=O)NC(C)(C)C1=O	-4	0.56
Cc1cc(F)ccc1C(=O)N1CCC2CCC(C1)N2C(C)C (stereo not drawn)	-11	1.95
Cc1cc2n(n1)[C@H](C(F)(F)F)CCN2C(=O)c1cccc(=O)n1C	-11	1.68
COc1cccc2nc(NC(=O)N3CCN(C)[C@H](c4nc(C)no4)C3)sc12	5	-1.02
c1ccc2oc(NC[C@H]3CN(C4CC4)CCO3)nc2c1	1	-0.12
COC(=O)C1CC(O)CN1Cc1cnn(C)c1C(F)(F)F (stereo not drawn)	3	-0.35
Cc1cccc(CN2CCC(O)(c3ccc4oc(C(=O)N5C[C@@H](C)O[C@@H](C)C5)cc4c3)CC2)c1	1	-0.26
O=S(=O)(c1cc(Cl)ccc1F)N1CCC[C@H](n2ccnn2)C1	-1	0.17
CCOc1cc(C(N)=O)cc(Br)c1OCC	-3	0.52
CC1(C(=O)O)CCN(Cc2ccccc2OCCN2CCOCC2)CC1	9	-1.3
CNc1nc(C(=O)N2CCN([C@H](C#N)c3ccccc3)CC2)cs1	-2	0.22
O=C(c1cc(C2CC2)[nH]n1)N1C[C@H]2CC[C@@H](O)[C@H]2C1	-9	0.88
Cc1csc(C(=O)Nc2cnc3cc(C)nn3c2)c1	-16	2.01

SMILES	% Inhibition [%]	Z score
O=C(NCc1cccc(C(F)(F)F)c1)c1coc(CN2CCN(Cc3ccc(F)cc3F)CC2)n1	-8	1.32
O=C(CC1CC2CCC1O2)NS(=O)(=O)c1ccc2c(c1)C(=O)CCC2 (stereo not drawn)	-9	1.66
Cc1ccc(CNCc2c(C(=O)O)c(C)n(-c3ccc(Cl)cc3)c2C)cc1	-8	0.99
COCc1n[nH]c(-c2ccc3c(c2)OCO3)n1	-6	1.2
CCN1c2ccccc2C(=O)NC12CCN(C(=O)c1ccc(F)cc1)CC2	-3	0.52
COc1ccc(CCNC(=O)C(=O)Nc2ccc(N3CCCS3(=O)=O)cc2)cc1	-13	1.72
O=C(Nc1cccc(-c2cc(F)cc3cccnc23)c1)c1ccc2c(c1)OCO2	-8	1.54
COc1ccc(NC(=O)N(C)C2CCCC2S(C)(=O)=O)cc1OC(F)F (stereo not drawn)	1	-0.17
O=C(Nc1nc(CN2CCc3ccccc3C2)cs1)c1ccccc1Cl	-4	0.86
Cc1ccsc1CN(C)S(=O)(=O)N1CC(C)OCC1C (stereo not drawn)	-7	0.89
CC[C@H](C)Oc1c(CN2CCC3(CC2)CN(C)CCN3C)cccc1OC	-28	2.5
CC[C@H](C)CNC(=O)c1n[nH]c2c1CN(C(=O)Cc1ccc(C)cc1)CC2	-8	1.27
CN(Cc1cnn(-c2ccccc2)c1)c1ccc(C(N)=O)cn1	-2	0.23
CCNC(=O)CCN(C)Cc1cccnc1	-7	0.64
O=C(N[C@@H](Cc1c[nH]c2cc(F)ccc12)C(=O)O)c1ccsc1	-4	0.37
CNC(=O)[C@@H]1CCCN1C(=O)NCc1ccco1	28	-3.7
O=C(CN1CCN(c2ncnc3sccc23)CC1)NC[C@H]1CCCO1	-4	0.43
Cc1ccnc(Oc2cc(NC(=O)C3(CN)CCCC3)ccc2C)c1	-16	1.76
C=C(C)C1OCCC1CNC(=O)N1CCC(c2c[nH]c3ccccc23)CC1 (stereo not drawn)	1	-0.22
O=C(NCC1CCN1C1CC1)NC[C@@H]1C[C@H](c2ccccc2)CO1 (stereo partly drawn)	4	-0.53
C=CCN(Cc1nc(-c2ccccn2)no1)[C@H]1CCS(=O)(=O)C1	-2	0.36

Source: ChEMBL document CHEMBL4888484, “Replenishing the malaria drug discovery pipeline: Screening and hit evaluation of the MMV Hit Generation Library 1 (HGL1) against asexual blood stage Plasmodium falciparum ,using a nano luciferase reporter read-out” (2022)
